Where two headings read alike, the source gives them in different places. Results are given in words; binding and its absence hold for the method and conditions named. In cells and extracts the contact can be indirect. Some results given as binding are weak or reduced against the parent protein; the word gives no strength. For part of these data: Where a sequence is shown, tags or fusion partners need not be part of it. Blank lines part the entries; values can stand above or below the molecule they belong to.
Key:
TMEM115-NT229 (human) [1] = target: T1, TMEM115-NT229 (human) (UniProt Q12893); assay: co-IP; FLAG immunoprecipitation from lysates of transfected HEK293 cells; lysis buffer 50 mM Tris-HCl pH 7.5, 150 mM NaCl, 1% Triton X-100; 4°C; immunoblotting
T1 sequence: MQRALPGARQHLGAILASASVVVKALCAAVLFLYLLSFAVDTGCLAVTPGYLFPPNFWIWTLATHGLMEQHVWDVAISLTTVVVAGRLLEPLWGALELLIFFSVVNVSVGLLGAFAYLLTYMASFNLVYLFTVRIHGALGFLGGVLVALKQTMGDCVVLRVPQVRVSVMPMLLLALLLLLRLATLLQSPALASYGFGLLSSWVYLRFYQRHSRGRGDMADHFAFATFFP

By UniProt entry, the sequences of proteins in these tests, tags left out.
UniProt P53618: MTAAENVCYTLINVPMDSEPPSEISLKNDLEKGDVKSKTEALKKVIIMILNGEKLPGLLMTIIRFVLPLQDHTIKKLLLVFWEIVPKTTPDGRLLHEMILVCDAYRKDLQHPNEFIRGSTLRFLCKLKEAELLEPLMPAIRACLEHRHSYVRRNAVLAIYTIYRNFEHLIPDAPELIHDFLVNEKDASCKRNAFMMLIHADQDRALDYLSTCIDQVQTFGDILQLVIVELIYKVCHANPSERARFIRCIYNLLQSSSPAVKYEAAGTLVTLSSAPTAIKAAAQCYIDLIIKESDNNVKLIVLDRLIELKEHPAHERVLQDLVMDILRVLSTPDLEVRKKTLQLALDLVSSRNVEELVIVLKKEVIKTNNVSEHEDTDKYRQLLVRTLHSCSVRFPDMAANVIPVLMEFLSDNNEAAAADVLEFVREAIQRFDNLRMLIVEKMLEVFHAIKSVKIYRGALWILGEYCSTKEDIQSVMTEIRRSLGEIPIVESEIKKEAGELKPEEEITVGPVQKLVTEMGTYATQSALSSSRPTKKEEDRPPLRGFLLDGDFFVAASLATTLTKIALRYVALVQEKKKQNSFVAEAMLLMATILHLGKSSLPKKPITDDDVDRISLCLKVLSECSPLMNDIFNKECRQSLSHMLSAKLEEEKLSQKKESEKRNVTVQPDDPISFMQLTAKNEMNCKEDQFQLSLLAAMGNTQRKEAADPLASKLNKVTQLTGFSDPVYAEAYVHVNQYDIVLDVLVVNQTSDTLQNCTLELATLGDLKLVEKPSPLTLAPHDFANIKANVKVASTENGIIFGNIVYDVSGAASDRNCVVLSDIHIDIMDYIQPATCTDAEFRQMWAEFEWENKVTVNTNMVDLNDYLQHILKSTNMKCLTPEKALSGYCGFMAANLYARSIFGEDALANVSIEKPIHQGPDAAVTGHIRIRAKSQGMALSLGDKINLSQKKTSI

[2] = target: T2, C-terminally FLAG-tagged full-length TMEM115 (TMEM115-FL-FLAG) (human) (UniProt Q12893); assay: as above
T2 sequence: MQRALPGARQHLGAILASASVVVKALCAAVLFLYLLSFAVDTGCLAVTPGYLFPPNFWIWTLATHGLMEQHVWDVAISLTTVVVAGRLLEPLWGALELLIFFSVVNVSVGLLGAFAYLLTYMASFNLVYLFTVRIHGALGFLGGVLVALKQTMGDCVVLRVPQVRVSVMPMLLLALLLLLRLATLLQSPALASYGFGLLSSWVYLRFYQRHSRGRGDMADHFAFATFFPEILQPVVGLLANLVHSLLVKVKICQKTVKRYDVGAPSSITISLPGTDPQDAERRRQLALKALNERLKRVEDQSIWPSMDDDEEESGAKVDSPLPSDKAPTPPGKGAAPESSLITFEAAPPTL

TMEM115-NT229 (human) [3] = target: T1, TMEM115-NT229 (human); assay: as above; remark: listed apart in the source
[4] = target: T3, full-length TMEM115–FLAG–HIS (in vitro translated) (human), Q12893; assay: co-IP; in vitro translated products combined in cell lysis buffer, FLAG immunoprecipitation, beads washed with cell lysis buffer containing 150 mM NaCl; details: remark: other sources report otherwise
T3 chain: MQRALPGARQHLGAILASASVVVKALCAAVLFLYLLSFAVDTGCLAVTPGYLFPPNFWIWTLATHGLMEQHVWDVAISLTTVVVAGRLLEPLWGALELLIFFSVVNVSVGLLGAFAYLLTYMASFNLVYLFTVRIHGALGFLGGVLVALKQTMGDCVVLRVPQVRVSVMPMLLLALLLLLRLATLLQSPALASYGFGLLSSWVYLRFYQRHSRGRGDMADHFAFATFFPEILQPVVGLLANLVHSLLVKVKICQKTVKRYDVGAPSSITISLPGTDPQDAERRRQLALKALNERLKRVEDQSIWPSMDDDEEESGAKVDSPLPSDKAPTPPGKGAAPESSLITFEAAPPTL

ERGIC53–GFP = target: T4, ERGIC53–GFP (UniProt P49257); assay: co-IP; GFP immunoprecipitation from lysates of HEK293 cells transfected with TMEM115-FL–FLAG and ERGIC53–GFP; immunoblotting
T4 sequence: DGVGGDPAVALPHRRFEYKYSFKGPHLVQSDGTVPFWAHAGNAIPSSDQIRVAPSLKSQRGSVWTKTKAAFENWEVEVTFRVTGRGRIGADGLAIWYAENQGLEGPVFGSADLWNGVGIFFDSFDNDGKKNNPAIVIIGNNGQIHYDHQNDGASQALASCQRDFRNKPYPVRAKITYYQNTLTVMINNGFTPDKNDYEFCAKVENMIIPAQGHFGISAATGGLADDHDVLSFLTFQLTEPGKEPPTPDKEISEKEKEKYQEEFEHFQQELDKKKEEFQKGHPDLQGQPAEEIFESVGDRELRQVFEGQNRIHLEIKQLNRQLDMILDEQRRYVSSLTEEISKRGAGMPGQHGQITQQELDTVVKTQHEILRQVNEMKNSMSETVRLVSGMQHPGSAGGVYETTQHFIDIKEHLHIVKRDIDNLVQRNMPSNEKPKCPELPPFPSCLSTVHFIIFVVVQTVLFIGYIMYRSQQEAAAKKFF

- binding (TMEM115-NT229 (human) [1]): binds
- binding [2]: binds
Molecule: endogenous β-COP (from UniProt P53618 1-953)

- binding (TMEM115-NT229 (human) [3]): binds
B1: endogenous COG3 (protein, UniProt Q96JB2 1-828)
chain: MAEAALLLLPEAAAERDAREKLALWDRRPDTTAPLTDRQTDSVLELKAAAENLPVPAELPIEDLCSLTSQSLPIELTSVVPESTEDILLKGFTSLGMEEERIETAQQFFSWFAKLQTQMDQDEGTKYRQMRDYLSGFQEQCDAILNDVNSALQHLESLQKQYLFVSNKTGTLHEACEQLLKEQSELVDLAENIQQKLSYFNELETINTKLNSPTLSVNSDGFIPMLAKLDDCITYISSHPNFKDYPIYLLKFKQCLSKALHLMKTYTVNTLQTLTSQLLKRDPSSVPNADNAFTLFYVKFRAAAPKVRTLIEQIELRSEKIPEYQQLLNDIHQCYLDQRELLLGPSIACTVAELTSQNNRDHCALVRSGCAFMVHVCQDEHQLYNEFFTKPTSKLDELLEKLCVSLYDVFRPLIIHVIHLETLSELCGILKNEVLEDHVQNNAEQLGAFAAGVKQMLEDVQERLVYRTHIYIQTDITGYKPAPGDLAYPDKLVMMEQIAQSLKDEQKKVPSEASFSDVHLEEGESNSLTKSGSTESLNPRPQTTISPADLHGMWYPTVRRTLVCLSKLYRCIDRAVFQGLSQEALSACIQSLLGASESISKNKTQIDGQLFLIKHLLILREQIAPFHTEFTIKEISLDLKKTRDAAFKILNPMTVPRFFRLNSNNALIEFLLEGTPEIREHYLDSKKDVDRHLKSACEQFIQQQTKLFVEQLEEFMTKVSALKTMASQGGPKYTLSQQPWAQPAKVNDLAATAYKTIKTKLPVTLRSMSLYLSNKDTEFILFKPVRNNIQQVFQKFHALLKEEFSPEDIQIIACPSMEQLSLLLLVSK

- binding [4]: binds
B2: Myc-tagged COG3 (in vitro translated), Q96JB2 1-828 (protein)
chain: MAEAALLLLPEAAAERDAREKLALWDRRPDTTAPLTDRQTDSVLELKAAAENLPVPAELPIEDLCSLTSQSLPIELTSVVPESTEDILLKGFTSLGMEEERIETAQQFFSWFAKLQTQMDQDEGTKYRQMRDYLSGFQEQCDAILNDVNSALQHLESLQKQYLFVSNKTGTLHEACEQLLKEQSELVDLAENIQQKLSYFNELETINTKLNSPTLSVNSDGFIPMLAKLDDCITYISSHPNFKDYPIYLLKFKQCLSKALHLMKTYTVNTLQTLTSQLLKRDPSSVPNADNAFTLFYVKFRAAAPKVRTLIEQIELRSEKIPEYQQLLNDIHQCYLDQRELLLGPSIACTVAELTSQNNRDHCALVRSGCAFMVHVCQDEHQLYNEFFTKPTSKLDELLEKLCVSLYDVFRPLIIHVIHLETLSELCGILKNEVLEDHVQNNAEQLGAFAAGVKQMLEDVQERLVYRTHIYIQTDITGYKPAPGDLAYPDKLVMMEQIAQSLKDEQKKVPSEASFSDVHLEEGESNSLTKSGSTESLNPRPQTTISPADLHGMWYPTVRRTLVCLSKLYRCIDRAVFQGLSQEALSACIQSLLGASESISKNKTQIDGQLFLIKHLLILREQIAPFHTEFTIKEISLDLKKTRDAAFKILNPMTVPRFFRLNSNNALIEFLLEGTPEIREHYLDSKKDVDRHLKSACEQFIQQQTKLFVEQLEEFMTKVSALKTMASQGGPKYTLSQQPWAQPAKVNDLAATAYKTIKTKLPVTLRSMSLYLSNKDTEFILFKPVRNNIQQVFQKFHALLKEEFSPEDIQIIACPSMEQLSLLLLVSK

- binding (ERGIC53–GFP): binds
B3: C-terminally FLAG-tagged full-length TMEM115 (TMEM115-FL-FLAG) (protein, UniProt Q12893 1-351)
chain: MQRALPGARQHLGAILASASVVVKALCAAVLFLYLLSFAVDTGCLAVTPGYLFPPNFWIWTLATHGLMEQHVWDVAISLTTVVVAGRLLEPLWGALELLIFFSVVNVSVGLLGAFAYLLTYMASFNLVYLFTVRIHGALGFLGGVLVALKQTMGDCVVLRVPQVRVSVMPMLLLALLLLLRLATLLQSPALASYGFGLLSSWVYLRFYQRHSRGRGDMADHFAFATFFPEILQPVVGLLANLVHSLLVKVKICQKTVKRYDVGAPSSITISLPGTDPQDAERRRQLALKALNERLKRVEDQSIWPSMDDDEEESGAKVDSPLPSDKAPTPPGKGAAPESSLITFEAAPPTL

- binding [4]: binds
B4: Myc-tagged COG6 (in vitro translated), Q9Y2V7 1-657 (protein)
chain: MAEGSGEVVAVSATGAANGLNNGAGGTSATTCNPLSRKLHKILETRLDNDKEMLEALKALSTFFVENSLRTRRNLRGDIERKSLAINEEFVSIFKEVKEELESISEDVQAMSNCCQDMTSRLQAAKEQTQDLIVKTTKLQSESQKLEIRAQVADAFLSKFQLTSDEMSLLRGTREGPITEDFFKALGRVKQIHNDVKVLLRTNQQTAGLEIMEQMALLQETAYERLYRWAQSECRTLTQESCDVSPVLTQAMEALQDRPVLYKYTLDEFGTARRSTVVRGFIDALTRGGPGGTPRPIEMHSHDPLRYVGDMLAWLHQATASEKEHLEALLKHVTTQGVEENIQEVVGHITEGVCRPLKVRIEQVIVAEPGAVLLYKISNLLKFYHHTISGIVGNSATALLTTIEEMHLLSKKIFFNSLSLHASKLMDKVELPPPDLGPSSALNQTLMLLREVLASHDSSVVPLDARQADFVQVLSCVLDPLLQMCTVSASNLGTADMATFMVNSLYMMKTTLALFEFTDRRLEMLQFQIEAHLDTLINEQASYVLTRVGLSYIYNTVQQHKPEQGSLANMPNLDSVTLKAAMVQFDRYLSAPDNLLIPQLNFLLSATVKEQIVKQSTELVCRAYGEVYAAVMNPINEYKDPENILHRSPQQVQTLLS

Reference: paper PMC4077589
